# Reference: the supplement of paper PMC12355420
# Structures can show the parent of a compound that is named as a salt. Some of the results follow. Cut-off read from the data, not from the text of the source: active = 0.5 or less and inactive = the rest. Most values come without repeats; read them as rough.
# Experiments:
# Conditions in all cases: 50 µM; 24 h
# [1] = test system: HeLa VPS33A reporter cells; assay: relative cell viability (CellMask signal) vs DMSO (fraction of DMSO); higher = less cytotoxic;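 note: primary screen of an FDA-approved drug library in HeLa reporter cells in 96-well format, CellMask signal normalized to DMSO-treated wells set as 1, under 0.5 deemed highly cytotoxic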
# [2] = test system: HeLa VPS33A R498W KI + HA-SDC1-FLAG; assay: relative GAG core protein HA-SDC1 amount per cell number vs DMSO (fraction of DMSO); higher = more SDC1 (GAG core protein);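 note: HA-SDC1 level read out by In-Cell Western staining with an anti-HA antibody against the N-terminal tag, screening FDA-approved library drugs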
# [3] = test system: HeLa VPS33A KO + NLuc-VPS33A R498W; assay: relative mutant VPS33A R498W amount (NanoLuc luminescence) vs DMSO (fraction of DMSO); HeLa model of a glycosaminoglycan (GAG) storage disease; KI is knock-in and KO knock-out; SDC1 is syndecan 1; higher = higher mutant VPS33A level;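 note: screen of an FDA-approved drug library, NanoLuc luminescence read after lysing the treated cells, taken as a measure of mutant VPS33A protein stability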
Structure (SMILES),relative cell viability [1],relative GAG core protein HA-SDC1 amount per cell number [2],relative mutant VPS33A R498W amount [3]
C#Cc1cccc(Nc2ncnc3cc(OC)c(OCCCCCCC(=O)NO)cc23)c1,0.988,inactive: 0.745,6.35
CC(C)Cc1ccc(C(C)C(=O)O)cc1 (stereo not given) [Ibuprofen],1.07,inactive: 1.27,0.953
CC[C@@]1(O)C(=O)OCc2c1cc1n(c2=O)Cc2cc3c(CN(C)C)c(O)ccc3nc2-1 [Topotecan HCl],1.03,inactive: 0.512,1.33
C[C@]12CC[C@@H]3c4ccc(OC(=O)c5ccccc5)cc4CC[C@H]3[C@@H]1CC[C@@H]2O [Estradiol Benzoate],1.02,inactive: 0.681,0.91
COc1ccnc(C[S+]([O-])c2nc3cc(OC(F)F)ccc3[nH]2)c1OC (stereo not given) [Pantoprazole],1.08,inactive: 0.743,0.85
CN(C)CCOC(C)(c1ccccc1)c1ccccn1 (stereo not given) [Doxylamine Succinate],0.881,inactive: 0.927,1.15
COC(=O)C1=C(C#N)NC(C)=C(C(=O)OC(C)C)C1c1cccc([N+](=O)[O-])c1 (stereo not given) [Nilvadipine],1.09,inactive: 0.605,0.034
CCC1(c2c[nH]cn2)Cc2ccccc2C1 [Atipamezole hydrochloride],1.18,inactive: 0.601,0.615
COc1c2occc2cc2ccc(=O)oc12 [8-Methoxypsoralen],1.06,inactive: 0.825,1
CCCN1CCCC[C@H]1C(=O)Nc1c(C)cccc1C [Ropivacaine hydrochloride monohydrate],1.02,inactive: 0.976,1.11
